Data taken from article PMC4336329 (PLoS ONE, 2015).
In all, about 310,000 compounds went through this assay and about 14,000 (4.5%) showed an effect of 50% or more. Effects have a minus sign here. Some of the results follow.

Target: human ether-à-go-go-related gene (hERG) potassium channel (human, UniProt Q12809)
Assay: primary screen, population patch clamp on CHO cells stably expressing hERG
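Further: peak tail current of the secondary pulse compared with the same well before compound.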

Chain of human ether-à-go-go-related gene (hERG) potassium channel (Q12809 whole entry, looked up): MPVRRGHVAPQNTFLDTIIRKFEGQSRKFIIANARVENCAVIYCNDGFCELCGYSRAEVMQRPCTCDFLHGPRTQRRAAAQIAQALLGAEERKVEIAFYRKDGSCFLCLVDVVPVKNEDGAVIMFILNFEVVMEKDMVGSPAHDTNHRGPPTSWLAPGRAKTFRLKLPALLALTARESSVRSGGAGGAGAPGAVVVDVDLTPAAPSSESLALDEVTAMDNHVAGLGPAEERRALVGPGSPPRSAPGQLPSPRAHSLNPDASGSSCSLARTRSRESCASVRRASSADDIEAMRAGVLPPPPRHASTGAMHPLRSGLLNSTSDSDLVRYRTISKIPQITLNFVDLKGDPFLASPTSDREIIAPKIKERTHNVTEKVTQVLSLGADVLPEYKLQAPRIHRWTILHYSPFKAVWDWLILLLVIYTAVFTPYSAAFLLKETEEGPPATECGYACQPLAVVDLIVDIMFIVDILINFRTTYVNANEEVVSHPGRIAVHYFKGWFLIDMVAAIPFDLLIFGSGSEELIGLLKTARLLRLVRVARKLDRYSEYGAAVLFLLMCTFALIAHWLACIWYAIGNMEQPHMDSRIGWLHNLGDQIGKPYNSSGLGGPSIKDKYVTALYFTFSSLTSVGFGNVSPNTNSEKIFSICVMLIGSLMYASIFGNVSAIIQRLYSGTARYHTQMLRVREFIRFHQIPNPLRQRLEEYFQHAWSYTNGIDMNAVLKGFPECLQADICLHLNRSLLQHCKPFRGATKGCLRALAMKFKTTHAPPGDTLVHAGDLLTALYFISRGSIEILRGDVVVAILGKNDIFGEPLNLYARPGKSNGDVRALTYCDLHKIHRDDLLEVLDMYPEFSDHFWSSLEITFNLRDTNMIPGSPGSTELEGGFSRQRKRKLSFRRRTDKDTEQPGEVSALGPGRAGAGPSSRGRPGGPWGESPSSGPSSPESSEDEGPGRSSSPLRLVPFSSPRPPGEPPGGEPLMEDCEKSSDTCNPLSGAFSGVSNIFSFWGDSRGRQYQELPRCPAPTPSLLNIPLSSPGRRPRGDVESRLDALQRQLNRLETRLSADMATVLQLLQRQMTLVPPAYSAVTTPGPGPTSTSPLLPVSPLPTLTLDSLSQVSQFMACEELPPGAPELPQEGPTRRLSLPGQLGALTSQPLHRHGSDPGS

Going from CCOC(=O)c1c(-c2ccccc2)csc1NC(=O)CSc1ccccc1 to CCOC(=O)C/C(C)=N/NC(=O)C1CC1(c1ccccc1)c1ccccc1 (stereo not drawn), the “hERG current change (%, negative = inhibition) at 10uM” value rises from -4.13% to 18.3%.

First: COc1ccc(-c2nn(-c3ccccc3)cc2CO)cc1
Second: Fc1ccccc1COc1ccc(-c2nnn(Cc3ccccc3F)n2)cc1
The “hERG current change (%, negative = inhibition) at 10uM” value of the first is lower: 4.56% for the first, 13.9% for the second.

Compared with COc1cccc(OC)c1C(=O)NC(=S)Nc1ccc2oc(-c3ccncc3)nc2c1, Cc1c(NC(=S)NC(=O)c2ccc(-c3ccc(Cl)cc3)o2)cccc1C(=O)O is higher in “hERG current change (%, negative = inhibition) at 10uM” value: 4.34% for the first, 21.7% for the second.

Going from C[C@H](NC(=O)Cc1ccccc1)C(=O)N1CCC2(CC1)NCCc1[nH]cnc12 to CCCCC(CCC(=O)NNC(=O)Cc1ccccc1)C(=O)O (stereo not drawn), the “hERG current change (%, negative = inhibition) at 10uM” value falls from 15.5% to -4.26%.

Compared with CN(CCC#N)C(=O)COC(=O)c1ccc(Cl)cc1O, CN(C(=O)COC(=O)COc1ccc(Cl)cc1)C1CCCCC1 is lower in “hERG current change (%, negative = inhibition) at 10uM” value: 2.81% for the first, -17.4% for the second.

First: COC(=O)c1cccc(NC(=O)CN2CCOCC2)c1
Second: O=C(Nc1ccccc1)Oc1ccccc1N1CCOCC1
The “hERG current change (%, negative = inhibition) at 10uM” value of the first is higher: 11% for the first, -3.33% for the second.

Compared with CCOC(=O)C1CCCN(S(=O)(=O)c2cc3c(cc2Cl)NC(=O)CO3)C1 (stereo not drawn), O=C(NC1CCCc2ccccc21)C1CCCN(S(=O)(=O)c2cnc[nH]2)C1 (stereo not drawn) is higher in “hERG current change (%, negative = inhibition) at 10uM” value: -41.2% for the first, 2.1% for the second.

Going from COc1ccc(C2C(Oc3ccccc3)C(=O)N2c2cc(C)ccc2C)cc1OC (stereo not drawn) to COc1cc2[nH]c(=O)n(CCCC(=O)NCCc3ccccc3)c(=O)c2cc1OC, the “hERG current change (%, negative = inhibition) at 10uM” value falls from 6.07% to -8.67%.

Going from CCOc1cc(NC(=S)NCC2CCCO2)c(OCC)cc1NC(=O)c1cccc(F)c1 (stereo not drawn) to Cc1cccc(NC(=O)CSc2nnc(CNC(=O)c3ccco3)n2C)c1C, the “hERG current change (%, negative = inhibition) at 10uM” value falls from 7.62% to -17.3%.

Going from Cc1cccc(N(CC(=O)NC2CCCCC2)C(=O)CCCC(=O)Nc2ccccn2)c1C to COCCNC(=O)C(c1ccc(F)cc1)N(CCOC)C(=O)CCC(=O)Nc1ccccn1 (stereo not drawn), the “hERG current change (%, negative = inhibition) at 10uM” value rises from -16.1% to 12.6%.

Going from CC(C)c1cc(C(=O)N2CCCC(Nc3ccc(F)c(F)c3)C2)nc(N)n1 (stereo not drawn) to COC(=O)c1ccccc1C(=O)N1CCCC(CNC(=O)c2ccc(F)cc2)C1 (stereo not drawn), the “hERG current change (%, negative = inhibition) at 10uM” value rises from 6.66% to 11.2%.

First: Cc1ccccc1NC(=O)c1snc2c(=O)[nH]cnc12
Second: CCC(Sc1nc(C)cc(=O)[nH]1)C(=O)Nc1nc(-c2ccccc2)cs1 (stereo not drawn)
The “hERG current change (%, negative = inhibition) at 10uM” value of the first is higher: 9.89% for the first, 2.21% for the second.

Compared with Cl.N=c1sc2c(n1Cc1ccccc1)CCCC2, COc1ccccc1NC(=O)CSc1nc(=O)n(Cc2ccncc2)c2c1CCCC2 is higher in “hERG current change (%, negative = inhibition) at 10uM” value: -49.3% for the first, -20% for the second.

First: CC(C)c1ccc(N2C(=NC(=O)C3CC3)SC3CS(=O)(=O)CC32)cc1 (stereo not drawn)
Second: O=C(COc1ccc(F)cc1)N(Cc1ccc(Cl)cc1)C1CCS(=O)(=O)C1 (stereo not drawn)
The “hERG current change (%, negative = inhibition) at 10uM” value of the first is higher: 13.3% for the first, -38.7% for the second.

Compared with CSc1ccc(/C=C/C(=O)OCC(=O)N2CCc3ccccc32)cc1, CSc1ccc(NC(=O)NCCN2CCc3ccccc3C2)cc1 is lower in “hERG current change (%, negative = inhibition) at 10uM” value: 0.871% for the first, -43.6% for the second.

Going from c1ccc(-c2cnnc3ccccc23)cc1 to O=C(COc1ccccc1)NCc1ccccc1, the “hERG current change (%, negative = inhibition) at 10uM” value rises from -13.5% to 4.64%.

First: CC(=O)NC(c1ccc(C(C)C)cc1)c1c(O)ccc2ccccc12 (stereo not drawn)
Second: O=C(Nc1ccccn1)c1ccc2ccccc2c1O
The “hERG current change (%, negative = inhibition) at 10uM” value of the first is lower: 8.87% for the first, 10.1% for the second.

Going from Cc1ccc(Cn2ncc3c(N4CCN(C5CCCC5)CC4)ncnc32)cc1 to O=C(CN1C(=O)NC2(CCCC2)C1=O)N1CCN(c2ccccc2Cl)CC1, the “hERG current change (%, negative = inhibition) at 10uM” value rises from -22.9% to 14.5%.

Going from CC1(c2nnc(-c3cccc(Cl)c3)o2)CC(c2ccccc2F)=NO1 (stereo not drawn) to Cc1noc(C)c1C(=O)N1CCC2(CC1)Oc1ccc(F)cc1C(=O)C21CC(c2ccc(Cl)cc2)=NO1 (stereo not drawn), the “hERG current change (%, negative = inhibition) at 10uM” value falls from 0.552% to -48%.

Going from CC(C)N(C(=O)CSc1nnc(NC(=O)c2cccs2)s1)C(C)C to COC(=O)c1sccc1NC(=O)c1sccc1C, the “hERG current change (%, negative = inhibition) at 10uM” value rises from 7.25% to 8.93%.

Compared with O=C(NCC1CCCCC1)C1CCCN(C(=O)NC2CCCCC2)C1 (stereo not drawn), COc1ccc(Cl)cc1NC(=O)CN(C)C(C)C(=O)NCC1CCCCC1 (stereo not drawn) is lower in “hERG current change (%, negative = inhibition) at 10uM” value: -11.8% for the first, -34.4% for the second.

Going from N#Cc1cnn2c(-c3ccccc3)ccnc12 to CC(C#N)Sc1ncnc2sc(-c3ccccc3)cc12 (stereo not drawn), the “hERG current change (%, negative = inhibition) at 10uM” value rises from 2.49% to 13.3%.

Compared with Cc1cc(Cl)cc(Br)c1OCCCN1C(=O)NC(C)(C)C1=O, Cc1cc2oc(=O)cc(CN3CCCCC3)c2cc1C(C)C is lower in “hERG current change (%, negative = inhibition) at 10uM” value: -0.566% for the first, -26% for the second.

First: CC1CCCCN1CCCNc1ccc(C(CC(N)=O)NC(=O)c2ccccc2)cc1[N+](=O)[O-] (stereo not drawn)
Second: O=C(O)c1cccc(N2C(=O)/C(=C/c3ccc([N+](=O)[O-])cc3)C=C2c2ccccc2)c1
The “hERG current change (%, negative = inhibition) at 10uM” value of the first is lower: 3.35% for the first, 5.76% for the second.

Going from CC1(C)Cc2ccccc2C(NNC(=O)c2cccnc2)=N1 to CC(C)Oc1ccc(C(=O)NCc2cccnc2)cc1, the “hERG current change (%, negative = inhibition) at 10uM” value rises from 5.46% to 8.89%.

Going from O/C(=C\c1nc2ccccc2nc1/C=C(\O)c1ccccc1)c1ccccc1 to CN(Cc1ccccc1F)C(=O)c1ccccc1Sc1ccccc1C#N, the “hERG current change (%, negative = inhibition) at 10uM” value falls from -5.5% to -8.62%.

First: Cc1ccc(O)c(C(=O)c2cnn(C(=O)COc3ccccc3C#N)c2)c1
Second: COc1ccc(-c2nn(CCC#N)cc2C(=O)Nc2cccc([N+](=O)[O-])c2)cc1OC
The “hERG current change (%, negative = inhibition) at 10uM” value of the first is higher: 5.14% for the first, -57.9% for the second.

Compared with O=C(c1ccco1)N1CCN(c2c([N+](=O)[O-])nn(-c3cccc(Cl)c3)[n+]2[O-])CC1, Cc1cccc(CN2CCN(C(=O)c3cccc4ccccc34)CC2)c1 is higher in “hERG current change (%, negative = inhibition) at 10uM” value: -38.1% for the first, 3.17% for the second.

First: Cc1sc(=NC(=O)c2ccco2)n(C)c1-c1ccc(Cl)cc1
Second: Cc1csc(NC(=O)CCc2c(C)nc3cc(-c4ccc(Cl)cc4)nn3c2C)n1
The “hERG current change (%, negative = inhibition) at 10uM” value of the first is lower: -39.2% for the first, -2.4% for the second.

First: Cc1ccc(-n2c(C)cc(/C=N\NC(=O)CC(=O)NC(C)C)c2C)cc1
Second: CCOC(=O)c1ccc(N/N=C/c2cc(Br)cc([N+](=O)[O-])c2O)cc1
The “hERG current change (%, negative = inhibition) at 10uM” value of the first is lower: -3.18% for the first, 17.9% for the second.

Going from COc1ccc2c(c1)c(CC(=O)NCc1cc([N+](=O)[O-])ccc1O)c(C)n2C(=O)c1ccc(Cl)cc1 to NS(=O)(=O)c1cc(C(=O)N=Nc2c(O)[nH]c3ccccc23)ccc1Cl, the “hERG current change (%, negative = inhibition) at 10uM” value rises from 0.227% to 3.39%.

Compared with COC(=O)C1C(c2ccccc2)C(C(=O)N2CCOCC2)C1c1ccccc1 (stereo not drawn), COc1ccccc1C(c1nnnn1Cc1ccccc1)N1CCC(C(N)=O)CC1.Cl (stereo not drawn) is lower in “hERG current change (%, negative = inhibition) at 10uM” value: -3.76% for the first, -7.13% for the second.

First: C=CCSC1=N/C(=C\C=C\c2ccco2)C(=O)S1
Second: Cc1cccc(-n2ccnc2SCC(=O)O)c1C
The “hERG current change (%, negative = inhibition) at 10uM” value of the first is lower: 7.36% for the first, 12% for the second.

First: CO/N=C/NC(=O)N1OC[C@@H]2COc3ccc4ccccc4c3[C@@H]21
Second: O=C(NCc1cccs1)C1CCN(S(=O)(=O)c2ccc3c(c2)OCCO3)CC1
The “hERG current change (%, negative = inhibition) at 10uM” value of the first is lower: 8.59% for the first, 16.5% for the second.

Going from COCCNC(=O)/C(C#N)=C/c1ccccc1Br to CC(C)(C)c1cc(C(=O)NCc2cc(F)cc3c2OCOC3)n(Cc2ccccc2)n1, the “hERG current change (%, negative = inhibition) at 10uM” value rises from 0.195% to 8.36%.

Going from CCN(CC(=O)Nc1c(F)cccc1F)C(=O)CNC(=O)c1ccc(C)s1 to CCC(=O)Nc1ccc(C(=O)Nc2c[nH]c(=O)[nH]c2=O)cc1, the “hERG current change (%, negative = inhibition) at 10uM” value rises from 23.3% to 24.6%.

Compared with O=C(CN(CCc1ccccc1)C(=O)CNS(=O)(=O)c1ccccc1)NCc1ccco1, CC(C)[C@H](NC(=O)[C@@H]1Cc2ccccc2CN1C(=O)OC(C)(C)C)C(=O)NCc1ccco1 is higher in “hERG current change (%, negative = inhibition) at 10uM” value: -12.4% for the first, -8.57% for the second.

First: CCN(CC)c1ccc(NC(=O)Cn2nnc(-c3cccc(OC)c3OC)n2)c(C)c1
Second: COc1ccc(CCNc2ncnc3[nH]ncc23)cc1OC
The “hERG current change (%, negative = inhibition) at 10uM” value of the first is higher: 8.92% for the first, 8.04% for the second.

Compared with Cc1cc(C)c(S(=O)(=O)Nc2ncn[nH]2)c(C)c1, Cc1cc(-c2nnc3sc(-c4ccc(Cl)cc4Cl)nn23)n[nH]1 is higher in “hERG current change (%, negative = inhibition) at 10uM” value: -0.0808% for the first, 8.51% for the second.

Compared with CCCn1cc(CN2CCC(n3nccc3NC(=O)CCOc3ccccc3)CC2)c(C)n1, Cc1cccc(NC(=S)N2CCC(c3nc4ccccc4o3)CC2)c1C is lower in “hERG current change (%, negative = inhibition) at 10uM” value: -13% for the first, -15% for the second.

First: CCc1cc2c(=O)c(-c3ccc4c(c3)OCO4)coc2c(CN(C)C)c1O
Second: Cc1c(C)n(CCc2ccccc2)c2ncnc(NCCCO)c12
The “hERG current change (%, negative = inhibition) at 10uM” value of the first is higher: 11.4% for the first, -40.1% for the second.

Going from O=C(CCN1C(=O)c2ccccc2S1(=O)=O)Nc1ccc(F)c([N+](=O)[O-])c1 to CC1=NN(c2nc(-c3ccc(C#N)cc3)cs2)C(=O)C1, the “hERG current change (%, negative = inhibition) at 10uM” value rises from -4.44% to 10.3%.

Compared with CCN(CC)CC#CC(C)OCOCC#CCOC (stereo not drawn), CC(C)CNC(=O)COc1ncnc2sccc12 is lower in “hERG current change (%, negative = inhibition) at 10uM” value: 4.97% for the first, -37.4% for the second.

In the case of O=C(NCCNC(=O)C1CC2CCC1C2)C1CC2CCC1C2 (stereo not drawn), the “hERG current change (%, negative = inhibition) at 10uM” value is reported as -3.7%.
